Laboratory results as given in PubChem BioAssay AID463173 (ICCB-Longwood Screening Facility, Harvard Medical School, 2010).
The campaign covered roughly 52,000 compounds. About 4,300 (8.3%) were called active. No stated cut-off is given here; in the data, active means survival mostly below about 52% (no sharp cut-off); inactive means mostly above about 56%. This is one part of the list.

Test system: DeltatarO mutant
Assay: growth inhibition of S. aureus wild type versus tarO mutant, primary screen, teichoic acid synthesis inhibitors, RN4220, OD600 (AID 463173)
Settings: OD600, 18 h, active compounds read low, screened at 18.75 µg/mL (by protocol)

| Compound | survival |
| --- | --- |
| Cc1ccc(CCNC(=O)CCS(=O)(=O)c2cc3c(cc2Cl)NC(=O)CO3)cc1 | inactive: 92% |
| CC(C)NC(=O)CN1C(=O)c2cccnc2Sc2ccccc21 | inactive: 71% |
| CC(=O)c1cccc(NC(=O)c2cc(C)nc3c2c(C)nn3-c2cccc(Cl)c2C)c1 | inactive: 89% |
| O=C(OCc1cc(=O)n2nc(C3CC3)sc2n1)c1ccccc1Cl | inactive: 91% |
| COc1ccc(CNC(=O)C2=CC(c3cccc(OC)c3)=NS(=O)(=O)N2C)cc1 | inactive: 74% |
| CCN(c1ccccc1C)S(=O)(=O)c1nnc(NC(=O)c2ccco2)s1 | active: 41% |
| COc1ccc(Nc2nnc(-c3ccc(C)c(S(=O)(=O)NCCO)c3)c3ccccc23)cc1C(N)=O | inactive: 57% |
| Cc1ccc(-n2ncc(C(=O)NC3CCCCC3)c2C2CCN(C(=O)OC(C)(C)C)CC2)cc1 | inactive: 116% |
| COc1ccccc1OCC(=O)N1CCC(c2nc3ccccc3o2)CC1 | active: 0% |
| CCCS(=O)(=O)c1ncc(Cl)c(C(=O)Nc2c(C(=O)Nc3ccccc3)oc3ccccc23)n1 | inactive: 59% |
| CNC(=O)c1c(NC(=O)c2nc(SCc3ccc(C)cc3)ncc2Cl)sc2c1CCCC2 | active: 37% |
| O=C(CNC1CC1)NCc1cccs1 | inactive: 87% |
| COc1cccc(CNC(=O)C2CCN(C(=O)c3cnn(-c4ccccc4)c3-n3cccc3)CC2)c1 | inactive: 76% |
| Cc1ccc(NC(=O)Nc2cn(CC(C)C)c(=O)c3ccccc23)cc1N(C)C | inactive: 78% |
| Cc1cccn2c(=O)cc(CSc3nnc(NC(=O)COc4ccccc4)s3)nc12 | inactive: 84% |
| COC(=O)c1cc2sccc2n1CC(=O)Nc1ccc(OC)c(OC)c1 | inactive: 86% |
| Cc1c(Cl)cccc1NC(c1ccc(F)cc1)c1nnc(-c2ccccc2)o1 (configuration not stated) | inactive: 87% |
| COc1ccc(C2=C(N3CCN(c4cc(C)ccc4C)CC3)c3ccccc3C2=O)cc1 | active: 28% |
| CCc1ccc(-n2c(=O)c3sc4ccccc4c3n(CC(=O)NCc3ccccc3)c2=O)cc1 | inactive: 85% |

| Compound | survival |
| --- | --- |
| O=C(c1ccc2c(c1)N(Cc1cccc(F)c1)C(=O)c1ccccc1S2)N1CCC2(CC1)OCCO2 | inactive: 78% |
| O=C(Cn1cccc1C(=O)c1ccccc1)NCc1ccccc1Cl | inactive: 89% |
| O=C(Nc1cccnc1)c1cc(-c2ccc(Cl)cc2)on1 | inactive: 61% |
| CCc1c(C)nc2cc(-c3cc(OC)cc(OC)c3)nn2c1NCCCN1CCOCC1 | inactive: 95% |
| COc1ccc(CNc2nc3c(-c4cccc(F)c4)nnn3c3ccccc23)cc1 | inactive: 88% |
| Cc1ccc(NC(=O)c2c(C)oc3c2C2=NCCN2C=N3)cc1F | inactive: 67% |
| COc1ccc(-c2c(C)nn3c(C(F)(F)F)cc(-c4ccccc4)nc23)cc1OC | inactive: 57% |
| COc1ccc(N(C)C(=O)c2cc3c(s2)-c2c(C)cccc2OC3)c(OC)c1 | active: -1% |
| CN(CC(=O)NCc1ccc(F)cc1)S(=O)(=O)c1ccc2[nH]c3c(c2c1)CCCC3 | inactive: 117% |
| CSc1nnc(C2CCCN(CC(=O)N3CCCC3)C2)n1C (configuration not stated) | inactive: 85% |
| O=C1c2ccccc2-c2nc3ncnn3c(-c3ccc4c(c3)OCO4)c21 | active: 49% |
| COc1cc(Cl)c(C)cc1NC(=O)CCc1nc2cccnc2n1Cc1cccs1 | inactive: 83% |
| CCN(CC)CCCNC(=O)c1ccc(Cn2c(=O)[nH]c3cc(OC)c(OC)cc3c2=O)cc1 | inactive: 77% |
| CCOC(=O)c1c(S(=O)(=O)N2CCC(C(=O)N3CCN(c4ccccc4F)CC3)CC2)c(C)n(C)c1C | inactive: 99% |
| Cn1cc(C(=O)NCc2ccccc2Cl)c(=O)c2cc(S(=O)(=O)N3CCCCCC3)ccc21 | inactive: 67% |
| Cc1ccc(-n2c(=O)c3c4c(sc3n(CC(=O)Nc3cccc(Cl)c3)c2=O)CCCCC4)cc1C | active: 105% |
| Fc1ccc(C(NCCc2ccccc2)c2nnc(-c3ccccc3Cl)o2)cc1 (configuration not stated) | inactive: 104% |
| O=C(CNCC1CCCCC1)Nc1ccccc1N1CCCCC1 | inactive: 84% |
| COc1ccc2nc(SCC(=O)O)[nH]c2c1 | inactive: 104% |

| Compound | survival |
| --- | --- |
| Cc1cccc(C)c1OCC(=O)NC(Cc1c[nH]c2ccccc12)C(=O)O (configuration not stated) | inactive: 143% |
| Cc1ccc(S(=O)(=O)NCc2nc3nc(C)cc(C)n3n2)cc1 | inactive: 127% |
| Cc1ccc(C)c(CN2CCCN(CC(=O)Nc3ccc(C)c(C)c3)S2(=O)=O)c1 | inactive: 94% |
| N#Cc1ccc(NC(=O)CCC(=O)O)cc1 | inactive: 90% |
| Cc1ccccc1OCCCCn1c(CCNC(=O)C(C)(C)C)nc2ccccc21 | active: 36% |
| O=C(CSc1ccccc1)NCc1ccc2c(c1)CCN2C(=O)c1ccccc1 | inactive: 64% |
| CCn1cc(S(=O)(=O)c2cccc(Cl)c2)c(=O)c2cc(F)c(N3CCN(C)CC3)cc21 | inactive: 84% |
| CN(Cc1ccccc1)C(=O)CCS(=O)(=O)c1ccc2c(c1)oc(=O)n2C | inactive: 101% |
| COC(=O)c1ccccc1NC(=O)c1ccc(-c2nc(CSc3ccc(C)cc3)c(C)o2)cc1 | inactive: 72% |
| COc1ccc(CCNC(=O)c2cn(C)c3ccc(S(=O)(=O)N4CCOCC4)cc3c2=O)cc1OC | inactive: 86% |
| CC(C)N(Cc1ccccc1)C(=O)Cn1ncc2c3ccccc3n(Cc3ccccc3)c2c1=O | inactive: 86% |
| CCOC(=O)c1ccc(NC(=O)CCCn2c(=O)c3cccn3c3cccnc32)cc1 | inactive: 86% |
| Cc1cccc(Cn2c(SCc3ccc(C(=O)NC4CCCC4)cc3)nc3cccnc32)c1 | inactive: 144% |
| Cc1nn(-c2ccc(Cl)cc2)c2nc(-c3cccnc3)cc(C(F)(F)F)c12 | active: 39% |
| COc1ccc(Br)cc1CNC(=O)CN1C(=O)CCCc2ccccc21 | inactive: 80% |
| CC(C)(C)c1ccc(C(=O)Nc2nc3nc(-c4ccccc4)cc(=O)n3[nH]2)cc1 | inactive: 94% |
| C#CC(C)(CC)NC(=O)Cn1nnc(-c2ccc(OCc3ccccc3Cl)cc2)n1 (configuration not stated) | inactive: 68% |
| COc1cccc(NC(c2nnc(-c3ccccc3)o2)c2ccc(F)cc2Cl)c1 (configuration not stated) | inactive: 54% |
| CC(C)CC(=O)N1CCN(S(=O)(=O)c2ccccc2)CC1 | inactive: 86% |
